# PMC10600005 (Nature, 2023)
# Test system: B. fragilis NrN
# Experiment: HPLC product analysis
# Format: biochemical, Bacteroides fragilis
# Details: 0.5 mM MnCl2, pH 7.5, 37 C; 1 uM enzyme, 100 uM substrate; products SAM and AMP
smiles,measurement,value
C[S+](CC[C@H](N)C(=O)O)C[C@H]1O[C@@H](n2cnc3c(N)ncnc32)[C@H](O)[C@@H]1OP(=O)(O)OC[C@H]1O[C@@H](n2cnc3c(N)ncnc32)[C@H](O)[C@@H]1O (stereo partly shown) [SAM-AMP],HPLC product analysis,NrN specifically degrades SAM-AMP to SAM and AMP
